# The whole screen tested about 150,000 compounds, of which about 540 (0.36%) showed an effect of 50% or more. The list shows a part of the results.
# Tested on: Plasmodium falciparum
# Assay: Primary screen in NF54 nanoGlo assay, in single point, at 2uM, 72h; a lower Z score goes with more inhibition
# Type: functional, Erythrocyte
# Conditions: timepoint 72 hour
SMILES,% Inhibition [%],Z score
CCc1nnc2n1CCN(Cc1nccn1CC(F)(F)F)C2,-4,0.64
CN(C)[C@H]1CCN(C(=O)C2(N(C)CCc3ccccc3)Cc3ccccc3C2)C1,-5,0.87
Nc1nnc(COc2ccc3ccccc3c2)o1,18,-2.24
CCOC[C@H]1CN(Cc2c(C)nn(-c3ccccc3)c2C)CCO1,8,-1.08
CC(C)c1ccccc1NC(=O)N(C)C,-7,1.14
CNC(=O)C1(C(=O)NC[C@H](c2ccccc2)C(C)C)CCC1,-11,1.35
CN1CCC(N(Cc2ccco2)C(=O)NCc2ccco2)CC1,-3,0.4
O=C(c1ccncc1)N1C[C@@H]2OCC(=O)N(Cc3cccnc3)[C@@H]2C1,-9,1.44
CC(=O)N1CCCN(C(=O)CCCc2nc(C(C)(C)C)no2)CC1,-13,1.37
O=C(Nc1ccccc1)c1cccc(CN2CCCCCC2)c1,-29,3.45
CS(=O)(=O)c1ccc(CN2CC[C@H](c3nc4ncccc4[nH]3)C2)cc1,-4,0.59
CN(Cc1ccsc1)C[C@](C)(O)c1ccc(S(C)(=O)=O)cc1,-7,0.92
Cc1cnc(C(=O)N[C@H]2c3ccccc3C[C@@H]2O)cc1C,0,0.01
CCCCOc1ccc(-c2cc3c4nnc(CCC(=O)N5CCCC5)n4ccn3n2)cc1,-6,0.87
C[C@H](NC(=O)C1CCN(S(=O)(=O)c2ccc(N3CCCC3=O)cc2)CC1)C(=O)N1CCCC1,-15,1.74
CC(C)(C)OC(=O)N1CC(CNC2(c3ncon3)CCC2)C1,9,-1.69
O=C(NCCC1CCS(=O)(=O)CC1)c1cc(F)c[nH]1,-2,0.39
COc1ccc(CNC(=O)c2cc(-c3ccc(OC)c(OC)c3)nc3n[nH]c(-c4ccc(Cl)cc4)c23)cc1,-5,0.81
CCN(c1ccc(OC)cc1)S(=O)(=O)c1cccc(-c2nc(-c3ccc(C)cc3)no2)c1,-15,2.2
COc1cc(C#N)ccc1CN1CC[C@H]1c1ccc(Cl)cc1,-8,0.96
CN1CCOC(C(NCc2ccccn2)c2ccc(Cl)cc2)C1 (stereo not given),4,-0.36
CC(C)c1cc(C(=O)N2CCCC[C@H]2c2nc(-c3ccccc3)c[nH]2)n(C)n1,-17,2.09

SMILES,% Inhibition [%],Z score
CCC1=C(C(=O)Nc2nnc(CC)s2)CCCO1,-11,1.14
COc1cc(NC(=O)N(CCN(C)C)CC(C)C)cc(OC)c1,-12,1.47
N[C@H]1CCCC[C@H]1c1nc(COc2ccc(F)c(Cl)c2)no1,5,-0.89
N#Cc1c(-c2ccccc2)cc(-c2ccccc2)nc1S(=O)(=O)Cc1ccccc1,37,-6.32
Cc1c[nH]c(CN(C)C(=O)Nc2cccc(N3C(=O)CC[C@@H]3C)c2)n1,0,0.03
FC(F)(F)c1cccc(N2CCN(c3ncnc4onc(-c5ccc(Cl)cc5)c34)CC2)c1,-7,1.08
NC(=O)[C@@H]1CN(Cc2ncc(C(F)(F)F)s2)CCO1,-12,1.56
Cn1c(N2CCNCC2)nc2c1c(=O)n(CC(=O)c1ccccc1)c(=O)n2C,8,-1.02
O=C(NCCN1CCCCC1)[C@H]1CCc2ncc(-c3ccc(F)cc3)n2C1,0,0.06
CCc1cnccc1C(=O)N1CCC(OCCCO)CC1,16,-2.99
CC1CC(N2CCCc3ccccc32)C(=O)O1 (stereo not given),-13,1.38
CCCNS(=O)(=O)c1cc(C(=O)NCc2ccco2)ccc1N1CCCC1,-22,2.62
CCCCc1cc(C[C@@H]2C[C@H](NC(=O)C3CCCC3)C2(C)C)no1,-5,0.88
COc1ccc(CC(=O)NCc2cccn2C)cc1,-4,0.47
NC(=O)C1CCN(C(=O)C2(Cc3ccccc3)CC3CCC2C3)C1 (stereo not given),-2,0.31
CCCCN(CCCNC(=O)[C@H]1CCCN(c2ncnc3onc(C)c23)C1)Cc1ccccc1,5,-0.69
CC(C)c1nccn1C1CN(C(=O)NCCc2ccccc2)C1,-19,2.35
COC1(C)CC(N(C)C(=O)c2c[nH]c(C(C)C)n2)C1(C)C (stereo not given),-11,1.46
COc1cc(COCC2CCN(C(=O)Nc3c(F)cccc3F)CC2)cc(OC)c1,-11,1.25
CC(NC(=O)CC(N)c1ccccc1)c1ccncc1 (stereo not given),-13,2.29
C[C@H]1CNCCN1C(=O)CCc1ccncc1,-15,1.9
COc1cccc(CNC(=O)c2cccc(NC(=O)c3nnc(CC(C)C)s3)c2)c1,-8,1.11

SMILES,% Inhibition [%],Z score
O=C(CN1C(=O)c2ccccc2C1=O)N1CCN(c2nc3cccnc3o2)CC1,-12,1.17
NC(=O)CO[C@H]1CCC12CCN(C(=O)c1cc3ccccc3[nH]1)CC2,-6,0.72
CN(C)C(=O)c1ccc(F)c(Br)c1,-3,0.58
COc1cc(C)n(CCNC(=O)c2cccn3c(=O)cc(C)nc23)c(=O)c1,-7,1.37
O=S(=O)(Cc1ccon1)N1CC2C3CCC(C3)C2C1 (stereo not given),5,-0.73
CN(C(=O)C1CCCC1)c1cccc(C#N)c1,-8,0.78
CCOC(=O)N1CCC(NC(=O)c2coc(NC(=O)Cc3c(C)noc3C)n2)CC1,18,-2.53
O=C(NCc1ccc(F)cc1)c1nnc(C(=O)Nc2ccc(F)cc2)s1,-13,1.21
CN(C(=O)CN1C(=O)c2ccccc2C1=O)C1CCCC1,-3,0.48
O=C(CN1C(=O)CCC1=O)N1CC(c2nc(-c3ccsc3)no2)C1,3,-0.39
CCc1ccc(C(=O)N[C@H]2C[C@H]3OCC[C@@H]23)[nH]1,4,-0.51
C#CCN(C)CCCNCc1ccoc1C,3,-0.52
O=C(Nc1cnc(C2CC2)nc1)N(Cc1ccccc1)CC(F)F,0,-0.06
CC1(CNC(=O)C2CCCCCC2)CCNCC1,4,-0.39
CCCc1ccc(C(=O)N2c3cccc([C@@]4(C)CC(C)(C)Nc5ccccc54)c3C(C)=CC2(C)C)cc1,-9,1.68
CN(C)Cc1ccc(NCc2cnc(C3CC3)o2)cc1Br,-4,0.72
CO[C@@H]1CN[C@@H](C(=O)NCCc2nc(-c3ccccc3)c(C)s2)C1,-1,0.19
O=C(NC[C@H]1CCC[C@@H]1O)c1cccc(Nc2nccs2)c1,-19,2.93
CCCC(CCC)C(=O)Nc1c(C)cc(C)cc1C,0,-0.04
Cc1c(NC(=O)NCc2ccccc2CC(F)(F)F)nnn1C,-8,1.22
O=C(Nc1cc(-n2cncn2)ncn1)c1ccc(S(=O)(=O)N2CCCC2)cc1,-13,2.19
CC(C)(C)n1nnc(CNC2CCN(S(=O)(=O)NCC(F)(F)F)CC2)n1,5,-0.56

SMILES,% Inhibition [%],Z score
O=C(O)c1cc(-c2cc(F)cc(F)c2)cc(S(=O)(=O)N2CCOCC2)c1,-3,0.44
CC(=O)N1CC(C(=O)N[C@@](C)(C(N)=O)c2cccc(Cl)c2)C1,0,-0.02
CN(CC1(CO)CC1)C(=O)CCc1cncs1,11,-1.16
Cc1cccc2c1ncn1nc(-c3ccccc3)c(=O)nc21,-15,2.08
CC(C)[C@H](NS(=O)(=O)N1CCCC1)c1nccn1C,-7,1.19
CNCC(=O)N1CC(=O)N(c2cccc(Cl)c2)C[C@@H]1Cc1ccccc1,6,-0.57
COc1cc(Cc2noc(Cc3cnccc3C)n2)ccc1S(C)(=O)=O,-2,0.42
Cc1occc1C(=O)NCC[C@H]1CCCN(C(=O)OC(C)(C)C)C1,9,-0.95
CC1(C)C(=O)Nc2cc(C(=O)N[C@H]3CCOC3(C)C)ccc21,-18,1.91
Cc1cc(CC(=O)NCc2ccc3c(c2)C[C@H](C)O3)on1,-5,0.7
O=C(CCc1ccc2c(c1)CCO2)NCc1ccco1,-9,1.26
C=C(CNC(=O)N1CCC(CN2CCNC2=O)CC1)c1ccccc1,-1,0.21
O=C(NC[C@H](O)c1ccccc1)c1cnsn1,2,-0.31
Cc1nc(C(C)C)sc1[C@H](C)N(C)CC(=O)NC(=O)Nc1ccccc1,31,-3.5
COc1ccc(-c2noc(Cn3nc4ccc(-c5ccccc5)nn4c3=O)n2)cc1OC,-11,1.45
Cc1cc(C)nc(O[C@H]2CCN(C(=O)c3ccno3)C2)n1,-1,0.15
COc1cccc(NC(=O)Cc2nnc(-c3ccsc3)o2)c1,-7,0.68
CCOc1ccccc1NC(=O)Cn1c(N2CCc3ccccc3C2)nc(C)cc1=O,-22,1.92
CCCCS(=O)(=O)NC[C@H](O)c1cccc(F)c1,-7,0.89
